Data reported in the supplement of paper PMC4604168 (melanoma cell lines).
Some of the results follow. Repeats are few or missing, and single values can be far off.

tested on: LB2518-MEL; assay: cell count relative to DMSO control; melanoma cells; higher = more viable cells; conditions: library dose: standard library concentration; 72 h
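Note: cells treated in 1,536-well plates, then fixed and DAPI-stained, with nuclei counted from automated high-throughput microscope images.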

Structure (SMILES) | cell count [%]
CN(c1ncccc1CNc1nc(Nc2ccc3c(c2)CC(=O)N3)ncc1C(F)(F)F)S(C)(=O)=O + C[C@@H]1CCN(C(=O)CC#N)C[C@@H]1N(C)c1ncnc2[nH]ccc12 [CP690550] (first compound 0.4 µM, partner dose 5 µM) | 88
CCCS(=O)(=O)Nc1ccc(F)c(C(=O)c2c[nH]c3ncc(Cl)cc23)c1F + Oc1cc(-c2nc(-c3ccccc3)[nH]c2-c2ccncc2)ccc1Cl [L779450] (first compound 0.4 µM, partner dose 1 µM) | 91.1
C=C(c1ccc(C(=O)O)cc1)c1cc2c(cc1C)C(C)(C)CCC2(C)C [Bexarotene] + Oc1nc(-c2ccc(C(F)(F)F)cc2)nc2c1CSCC2 [XAV939] (first compound 10 µM, partner dose 10 µM) | 105
C=C(c1ccc(C(=O)O)cc1)c1cc2c(cc1C)C(C)(C)CCC2(C)C [Bexarotene] + CCCS(=O)(=O)Nc1ccc(F)c(C(=O)c2c[nH]c3ncc(Cl)cc23)c1F [PLX4720] (first compound 10 µM, partner dose 0.4 µM) | 83
CN(c1ncccc1CNc1nc(Nc2ccc3c(c2)CC(=O)N3)ncc1C(F)(F)F)S(C)(=O)=O + Cc1cc(N2CCOCC2)cc2[nH]c(-c3c(NC[C@@H](O)c4cccc(Cl)c4)cc[nH]c3=O)nc12 [BMS536924] (first compound 0.4 µM, partner dose 1 µM) | 89.3
CS(=O)(=O)c1ccc(C(=O)Nc2ccc(Cl)c(-c3ccccn3)c2)c(Cl)c1 [vismodegib] + O=C(CCCCCCC(=O)Nc1ccccc1)NO [vorinostat] (first compound 5 µM, partner dose 0.4 µM) | 81.5
NC1(c2ccc(-c3nc4ccn5c(=O)[nH]nc5c4cc3-c3ccccc3)cc2)CCC1 + Nc1cccc2c1CN(C1CCC(=O)NC1=O)C2=O [lenalidomide] (first compound 2 µM, partner dose 5 µM) | 85.2
CS(=O)(=O)c1ccc(C(=O)Nc2ccc(Cl)c(-c3ccccn3)c2)c(Cl)c1 [vismodegib] + COc1ccc(-c2ccc3c(N4CCOCC4)nc(N4C[C@@H](C)O[C@@H](C)C4)nc3n2)cc1CO [KU0063794] (first compound 5 µM, partner dose 0.1 µM) | 86.4
CS(=O)(=O)c1ccc(C(=O)Nc2ccc(Cl)c(-c3ccccn3)c2)c(Cl)c1 [vismodegib] + C=CCn1c(=O)c2cnc(Nc3ccc(N4CCN(C)CC4)cc3)nc2n1-c1cccc(C(C)(C)O)n1 [MK1775] (first compound 5 µM, partner dose 0.1 µM) | 54.9
NC1(c2ccc(-c3nc4ccn5c(=O)[nH]nc5c4cc3-c3ccccc3)cc2)CCC1 + Cn1cc(/C=C2\C(=O)Nc3cccnc32)c2ccccc21 [GW441756] (first compound 2 µM, partner dose 2 µM) | 77.8
C=C(c1ccc(C(=O)O)cc1)c1cc2c(cc1C)C(C)(C)CCC2(C)C [Bexarotene] + O=C1NC(=O)/C(=C/c2ccc(-c3ccc(F)cc3O)o2)S1 [AS252424] (first compound 10 µM, partner dose 5 µM) | 91.6
CN(c1ncccc1CNc1nc(Nc2ccc3c(c2)CC(=O)N3)ncc1C(F)(F)F)S(C)(=O)=O + Cn1c(Nc2ccc(C(F)(F)F)cc2)nc2cc(Oc3ccnc(-c4ncc(C(F)(F)F)[nH]4)c3)ccc21 [CHIR265] (first compound 0.4 µM, partner dose 0.4 µM) | 24.1
CS(=O)(=O)c1ccc(C(=O)Nc2ccc(Cl)c(-c3ccccn3)c2)c(Cl)c1 [vismodegib] + Cn1nnc2c(C(N)=O)ncn2c1=O [temozolomide] (first compound 5 µM, partner dose 10 µM) | 108
CCCS(=O)(=O)Nc1ccc(F)c(C(=O)c2c[nH]c3ncc(Cl)cc23)c1F + Cn1nnc2c(C(N)=O)ncn2c1=O [temozolomide] (first compound 0.4 µM, partner dose 10 µM) | 94.2
C=C(c1ccc(C(=O)O)cc1)c1cc2c(cc1C)C(C)(C)CCC2(C)C [Bexarotene] + C#Cc1cccc(Nc2ncnc3cc(OCCOC)c(OCCOC)cc23)c1 [erlotinib] (first compound 10 µM, partner dose 4 µM) | 78.4
